Measured values taken from the supplement of paper PMC11417369.
Some of the results follow.

These sequences were tested on PfHDP1 homeodomain (GST-tagged) (assay: gcPBM binding intensity (ln(normalized median fluorescence intensity)); higher = stronger DNA binding).
Summary of the method: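 Alexa488 anti-GST antibody, scanned at 488 nm, detected GST-tagged P. falciparum DNA-binding domains that had been expressed in E. coli and incubated for 1 h on an Agilent 4 × 180k array. The array carried primer-extended double-stranded 36-bp intergenic genomic probes and negative controls. Binding intensity is the highest Masliner-normalised natural-log median intensity across replicate spots of either orientation of each probe.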

Row | Sequence | gcPBM binding intensity (ln)
1 | TACAGATACAGATACACACACACACCGAAATAAATA [CACACA_site4865] | 6.92
2 | AAAATAAAAAGAAAAAGAAAAAAGGGGGGGTAGGGG [CACACA_negctrl_site1048] | 6.78
3 | TAAATTCCTACATACGCATGTACATTAAAATTTTAA [TGCATGCA_site215] | 6.68
4 | CTTTAAGTTATATGAAGTACAATTTAAAAAAATGAA [XGTACX_site358] | 6.2
5 | TTAAAGTAGAGAAAATGTACATTTTATTAACACAAT [XGTACX_site6369] | 6.76
6 | AAATAAAAAACAGTGGCACACATTATGTATCCACCT [CACACA_site3756] | 6.07
7 | AAAAAAAAAATATACACACACATATAAATATAAATA [CACACA_site7574] | 6.68
8 | TATATGAAGTACACAATACACACTAATTATATATAA [CACACA_site2608] | 6.68
9 | AACTATAAAAATTTTACACACTGTTTTTAAATAATG [CACACA_site5928] | 6.89
10 | AATTTTTTTTTTAGACGTACAAGAAAAAACAAAAAA [XGTACX_site4990] | 6.53
11 | TTATGCCTTTAATATACACACTAATATTTTTTTGGC [CACACA_site5171] | 6.78
12 | TGTCATATTATAAATTGTACAAATAGTATAATTATT [XGTACX_site581] | 6.3
13 | ATAAAAATATTATAAGCACACATATATATATATATA [CACACA_site8781] | 9.54
14 | AGTATACATATATATACACACATATATATATATATA [CACACA_site300] | 9.27
15 | ATTTTATCTTTAAACTGTACGTATTAATATGTAGAA [XGTACX_site3077] | 6.27
16 | GTAAAATGATATAAATGTACATAATATATATATGTC [XGTACX_site4049] | 6.55
17 | TGTGTATTTATAAATACACACCAAATGTTAATATAT [CACACA_site6904] | 6.9
18 | ACAAGGTTTACGGGTAGTACAAATTTTTGAACATCT [XGTACX_site4739] | 5.96
19 | TTTTTTTTTTTTTTTTGTACTCATATCTACTATCAT [XGTACX_site274] | 6.44
20 | ATATAGATGCATAATACACACATCAGATAATTAACC [CACACA_site6871] | 6.96
21 | ATAAAAATTGATTATACACACGCGCCCAGACAACAA [CACACA_site5870] | 6.82
22 | ATTAAAAGTTTATACAAATAAAAAACAAAACAAAAA [CACACA_negctrl_site1030] | 6.61
23 | AGCCAAACCTTAAATTTAGCAATAAGTTTACAGGTC [CACACA_negctrl_site360] | 6.3

Row | Sequence | gcPBM binding intensity (ln)
24 | AAATAATTTGTTGACACACACACACCCATACAGATA [CACACA_site5291] | 7.13
25 | TTTTGACCATATCTGTTGCACTTTTGTGCTATTCGA | 8.05
26 | CATTATGTCGTAAATACACACATACATATACATACA [CACACA_site8383] | 6.84
27 | AAGGATCACAGACAAACACACATATATATATATATA [CACACA_site4469] | 9.43
28 | ATTAATTCGTTTTGTACACACATAATGAGTAATTTA [CACACA_site7118] | 6.55
29 | TAAATTTTTTCCTCCTGTACTTATTATATTTTTTTG [XGTACX_site1572] | 6.49
30 | TATGAAATTATAATTACACACAGGAAAATAAAATGT [CACACA_site1517] | 7.08
31 | ATATAATAATAAGGCACACAAATTAAAATATAAAAA [CACACA_site3710] | 6.65
32 | TATATATGCATATACATACACACATAACACATACGT [CACACA_site3833] | 7.16
33 | AATGTTTTATTTTGAAGTACATTTAAGAATTTTTTA [XGTACX_site7814] | 6.06
34 | TTATGTTCTTTAAAACCACACACCCCCCAACCCCCC [CACACA_site8742] | 8.95
35 | TGTAGATTTTGTAACACACACATATATATACATATA [CACACA_site2405] | 6.6
36 | GTACACATATAGTAATAATTTTATTATATTTTTTTG [CACACA_negctrl_site843] | 6.46
37 | ATTTTAATATAAAATACACACTACTATTATAAATAT [CACACA_site4917] | 6.29
38 | ATTCTTATTTAAAGGTGTACTCTTAAACAGATTTTA [XGTACX_site3526] | 6.12
39 | CACCCCCACAGACACACACACACACCCACATATATA [CACACA_site365] | 6.96
40 | TTCATAAAATGATATTGTACAAATAAATAATAGTAT [XGTACX_site819] | 7.11
41 | AGATTTAAATTTATATGTACATAATATGGGCGTATA [XGTACX_site6631] | 7.08
42 | GGTCTTCTTAATATACTGCACTGTATACGTATATAA | 8.05
43 | ATTATATACATATATATACACACGTAGTTTCTATTT [CACACA_site8697] | 6.39
44 | ATATATATATATAAATGTACATTTTTCAATAGTTTT [XGTACX_site7449] | 8.98
45 | TATAAATAAATAGATACACACATATATATAAATACA [CACACA_site155] | 6.51
46 | TACTTTTTATTTTCTTGTACTTAATTGTCCAGATTT [XGTACX_site4334] | 6.68

Row | Sequence | gcPBM binding intensity (ln)
47 | CTTATTATTATATGGGTGCTCATATTTTTCTTTTTT [GTGCAC_site9723] | 6.67
48 | ACAAACATTAGGGAAGCATGCAATATTTTTTTACAT [TGCATGCA_site372] | 6.68
49 | AGTTGTTTTAATAATGCATGTTATTTTATTTTAATA [TGCATGCA_site168] | 6.67
50 | GTATATATATATGTATATATTTTATTTTATTTTTAT [CACACA_negctrl_site1439] | 6.26
51 | TATATATATAGACACACACACACATATATATATATA [CACACA_site9366] | 9.14
52 | TAGATATATAGACACACACACATTAATACCTATATT [CACACA_site7605] | 6.83
53 | TGTCATTTAATTTTTTGTACGAAAAAAACATATAAA [XGTACX_site4952] | 6.64
54 | AAAAAAAAAAAGCACACACACATATGAGTATATATA [CACACA_site4683] | 6.91
55 | TAATATCATTTATGTAGTACTATAACAAGAACTATA [XGTACX_site3618] | 6.14
56 | GCTTATATAAAAAGTTGTACAACCGAATCTTTTACA [XGTACX_site2119] | 6.92
57 | TACACAAGCAGACACACACACATATATATATATATA [CACACA_site1270] | 9.36
58 | AATGTAAAAGTAAACACACACATATATAAATACATA [CACACA_site5386] | 6.7
59 | GTACATAGATTGTACATACACACCTATATAAATATC [CACACA_site3225] | 6.51
60 | TTTTTTTTGTTCTATACAATTATAAAAATAAAATAT [XGTACX_negctrl_site53] | 6.07
61 | AATATATGGTTCCATGATATTAAATTCAATTTAATG [CACACA_negctrl_site605] | 6.08
62 | AATTAAAAAAAATACACACACACATACACATATATA [CACACA_site3298] | 7.1
63 | CGTATTTATATAATTACACACCATATTATAATTATT [CACACA_site3760] | 6.85
64 | CCAAAAAAAAAAAAAAGTACATAAAAACAAGAGAAT [XGTACX_site3037] | 6.6
65 | AAGGGGTAAAGAAAAACACACAAAAAATAAAAATAT [CACACA_site361] | 6.78
66 | AAGAGAAAAATATATACACACACATAAATATATACA [CACACA_site8573] | 6.77
67 | TGCATACTTTTGTAAGTGCATAAAATCGTACCATGC | 8.83
68 | GAAATAATTCGATGTGCATGTAACGTTTCCCCAAAG [TGCATGCA_site122] | 8.71
69 | GATGAAAATAGAAATACACACTAAAAAATAAAATTA [CACACA_site4764] | 6.21

Row | Sequence | gcPBM binding intensity (ln)
70 | ACATATAATATATAATGTACAAAATTGTTAACAATA [XGTACX_site3798] | 6.74
71 | GAAAGGATATATATATATATATATATAATACATTTC [GTGCAC_negctrl_site677] | 7.06
72 | TATATATACATACATACACACATATATATATATATT [CACACA_site4110] | 6.95
73 | CTCAATGTTTGCGATACATGCAAAAATTTTTAGAAT [TGCATGCA_site165] | 6.54
74 | TACATTTCATTGTAATCATAAAAAATAAAGAAAAAA [XGTACX_negctrl_site542] | 6.34
75 | AAAAAAAAAAAAAAAGTGCACAGTCGTTTTAAAAAA [GTGCAC_site9848] | 9.31
76 | TCTATATCTTTCAACACACAAATTTTTTTTTCCATC [CACACA_site4238] | 6.52
77 | AAGATAATATTTTCTTGTACGCATGCACATACAAAT [XGTACX_site7181] | 7.76
78 | ATGCAAAGTTTATAAAGTACATAAGTCAAAATAAAA [XGTACX_site1441] | 6.6
79 | CTTTTCTCCCTCCATAGTACAATTATAAAAATATAT [XGTACX_site3090] | 6.42
80 | AAATCATTTAAGAACACACAAATATTTCCATTAAAT [CACACA_site6808] | 6.67
81 | ATTAACTATCATAACACACACAGTAGACATATTTTT [CACACA_site1822] | 6.81
82 | TTATTTTTCCGGAATAGTACATAGACGCAGATATAA [XGTACX_site6356] | 6.79
83 | TAGAAGCATGGACACACACACATACATACCCATACA [CACACA_site4916] | 6.93
84 | TTAACATATTATAAGTGTACATATTTATAAACAAGA [XGTACX_site8806] | 6.69
85 | ATTTTGAAAAATAAAAGTACATATAATATATCTACA [XGTACX_site7185] | 5.93
86 | TCTGTTAATATTTATACACACATATTTATTTATATA [CACACA_site6658] | 6.94
87 | ATATACATATATATGGGTACATATATTAATATATAT [XGTACX_site8358] | 6.74
88 | CACTCCATATTATACACACACACAAATGAAAAAAAT [CACACA_site3019] | 7.33
89 | TTTAGATATATGGTAGTGCATAATAAAAATATAGCC [GTGCAC_site9449] | 9.6
